Data: the RNAGym collection of RNA variant scans (doi:10.1073/pnas.2313332121)
Variants at the background level are over-represented here.

B1: TPR 5TU (parent)
chain: GGAUCUUCUCGAUCUAACAAAAAAGACAAAUCUGCCACAAAGCUUGAGAGCAUCUUCGGAUGCAGAGGCGGCAGCCUUCGGUGGCGCGAUAGCGCCAACGUUCUCAACUAUGACACGCAAAACGCGUGCUCCGUUGAAUGGAGUUUAUCAUG

Variants of: B1
Assay: polymerase ribozyme fitness, log enrichment relative to wild type (log ratio); higher = more active; in vitro selection for triplet polymerase activity
Outline: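 Fitness compares each genotype's enrichment to that of the wild type on a logarithmic scale, averaging replicates with inverse-variance weights. The logarithm is base 2. Enrichment came from Illumina sequencing of input and output libraries after one triplicate round of in vitro selection, which included frozen incubation at −7 °C, of PCR-built, transcribed mutant libraries of each subunit of a heterodimeric triplet polymerase ribozyme. Only genotypes with ≥10 input reads and ≥1 read per output were kept.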

Polymerase ribozyme fitness (log ratio), -3.41:
GGAUCUGCUCGAUCUAACAAAAAAGACAAAUCUGCCACAAAGCUUGAGAGCAUCUUCGGAUGCAGAGGCGGCAGCCUUCGGUGGCGCGAUAGCGCCAACGUUCUCAACUAUGACACGCAAAACGCGUGCUCCGUUGAAUGCAGUUUAUCAUG [U7G G141C]

Polymerase ribozyme fitness (log ratio), -3.81:
GGAUCUGCUCGAUCUAACAAAAAAGACAAAUCUGCCACAAAGCUUGAAAGCAUCUUCGAGUGCAGAGGCGGCAGCCUUCGGUGGCGCGAUAGCGCCGACGUUCUCAACUAUGACACGCAAAACGCGUGCUCCGUUGAAUGGAGUUUAUCAUG [U7G G48A G59A A60G A97G]

Polymerase ribozyme fitness (log ratio), ≤ -4.2:
GGAUCUGCUCGAUCUAACAAAAAAGACAAAUCUGCCACAAAGCUUGAGAGCAUCUUCGGAUGCAGAGGAGGCAGCCUUCGGUGGCGCGAUAGCGCCAACGUUCUCAACCAUGACACGCAAAACGCGUGCGCCGUUGUAUGGAGUUUAUCAUG [U7G C69A U109C U130G A137U]
GGAUCUGCUCGAUCUAACAAAAAAGACAAAUCUGACACAAAGCUUGAGAGCAACUUCCGAUGCAGAGGCGGCCGCCUUCGGUGGCGCGAUAGCUCCAACGUUCUCAACUAUGACACGCAAAACGGAUGCUCCGUUGAAUGGAGUUUAUCAUG [U7G C35A U53A G58C A73C G94U C125G G126A]
GGAUCUGCUCGAUCUAACAAAAAAGAGAAAUCUGCCACAAAGCAUGAGAGCAUCUUCGGAUGCAGAGGCGGCAGCCUUCGGUGGCGAGAUAGCGCCAACGUUCUCAACUAUGACACGCAAAACGCGUGCUCCGUUGAAUGGAGUUUAUCAUG [U7G C27G U44A C87A]
GGAUCUGCUCGAUCUAACAAAAAAGACAAAUCUGCCACAAAGCAUGAGAGCAUCUUCGGAUGCAGAGGCGGCAGCCUUCGGUGGCGCGAUAGCGCCAACGUUCUCAACUAUGACACGCAAAACGCGUGCUCCGUUGAAUGGAGUUUAUCAUG [U7G U44A]
GGAUCUGCUCCAUCUAACAAAAAAGACAAAUCUGCCACAAAGCUUAAGAGCAUCUUCGGAUGCAGAGGCGGCAGCCUUCGGUGGCGAGAUAGCGCCAACGUUCUCAACUAUGACACGCAUAACGCGUGCUCCGUUGAAUGGAGUUUAUCAUG [U7G G11C G46A C87A A120U]
GGAUCUGCUCGAUCUAACAAAAAAGACAAAUCUGCCACAAAGCUUGAGAGCAUCUUCGGAUGCAGAGGCGGCAGCCUUCGGUGGCGCGAUAGGGCCAACGUUCUCAACUAUGACACGCAAAACGCGUGCUCCGUUGAAAGGAGUUUAUCAUG [U7G C93G U139A]
GGAUCUGCUCGAUCUAACAAAAAAGACAAAUCUGCCACAAAGCUUGAGAGCAUCUUCGGAUGCAGAGGCGGCAGCUUUCGGUGGCGCGAUAGAGCCAACGUUCUCAACUAUGACACGCAAAACGCGUGCUCCGUUGAAUGGAGUUUAUCAUG [U7G C76U C93A]
GGAUCUUAUCGCUCUAACAAUAAAGACAAAUCUGCCACAAAGCUUGAGAGCAUCUUCGGAUGCAGAGGCGGCAGCCUCCGGUGGGGCGGUAGCGCCAACGUUCUGAACUAUGACACGCAAAACGCGUGCUCCGUUGAAUGAAGUUUAUCAUG [C8A A12C A21U U78C C85G A89G C105G G141A]
GGAUCUGCUCGAUCUAACAAAAAAGACAAAUCUGCCACAAAGCUUGAGAGCAACUACGGAUGCAGAGGCGGCAGCCUUCGGUGGCGCAAUAGCGCCAACGUUCUCAACUAUGACACGCAAAACGCGUGCUCCGUUGAAUGGAGUUUAUCAUG [U7G U53A U56A G88A]
GGAUCUGCUCGAUCUAACAAAAAAGACAAAUCUGCCACAAAGCUUGAGAGCAUCUUCGGAUGCAGAGGCGGCAGCCUUCGGUGGCGCGAUAGCGCUAACGUUCUCAACUAUGACACGCAAAACGCGUGUUCCGUUGGAUGGAGUUUAUCAUG [U7G C96U C129U A137G]
GGAUCUGCUCGAUCUAACAAAAAAGACAAAUCUGCCACAAAGCUUGAGAGCAACUUCGGAUGCAGAGGCGGCAGUCUUCGGUGGCGCGAUAGCGCCAACGUUCUCAACUAUGACACGCAAAACGCGUGCUUCGUUGAAUGGAGUUUAUCAUG [U7G U53A C75U C131U]
GGAUCUGCUCCAUCUAACAAAAAAGACAAAUCUGCCCCAAAGCUUGAGAGCAUCUUCGGAUGCAGAGGCGGUAGCCUUCCGUGGCGCGAUAGCGCCGACGUUCUCAACUAUGACACGCAAAACGCGUGCUCCGUUGAAUGGAGCUUAUCAUG [U7G G11C A37C C72U G80C A97G U144C]
GGAUCUGCUCGAUUUAACAAAAAAGACUACUAUGCCACAAAGCUUGCGAGCAUCUUCCGAUGCAGAGGCGGCAGCCUUCGGUGGUGCGAUAGCGCCAACGUUCUCAUCUAUGACACGCAAAACGCGUGCUCCGUUGAAUGGAGUUUAUCAUG [U7G C14U A28U A30C C32A A47C G58C C85U A107U]
GGAUCUGCUCGAUCUAACAAAAAAGACAAAUCUGCCACAAAGCUUGAGAGCAUCUUUGCAUGCAGAGGCGGCAGCCUUCGGUGGCGCAAUAGAGCCAACGUUCUCAACUAUGACCCGCAAAACGCGUGCUCCGUUGAAUGGAGUUUAUCAUG [U7G C57U G59C G88A C93A A115C]
GGAUCUGCUCGAUCUAACAAAAAAGACAAAUCUGCCACAAAGCUUGAGAUCAUCUUCGGAUGCAGAGGCGGCAGCCUUCGGUGGCGAGAUAGCGCCAACGUUCUUAACUAUGACACGCAAAACGCGUGCUCCGUUGAAUGGAGUUUAACAUG [U7G G50U C87A C105U U148A]
GGAUCUGCUCGAUCUAACAAAAAAGACAAAUUUGCCACAAAGCUUGAGAGCAUCUUCGGAUGCAGAGGCGGCAGCCUUCCGGGGCGCGAUAGCGCCAACGUUCUCAACUAUGACACGCAAAACGCGUGCUCCGUUGAAUGGAGUUUAUCAUG [U7G C32U G80C U82G]
GGAUCUGCUCGAUCUAACAAAAAAGACAAAUCUGCCACAAAGCUUGAGAGCAUCUUGGGUUGCAGAGGAGGCAGCCUUCGGUAGCGGGAUAGCGCCAACGUUGUCAUCUAUGACACGCAAAACGCGUGCUCCCUUGAAUGGGGUUUAUCAUG [U7G C57G A60U C69A G83A C87G C103G A107U G133C A142G]
GGAUCUGCUCGAUCUAACAAAAAAGACAAAUCUGCCACAAAGCUUGAGAGCAUUAUCGGAUGCAAAGGCGGCAGCCUUCGGUGGCGCGAUAGCGCCAACGUUCUCAUCUAUGACACGCAAAACGCGUGCUCCGUUGAAUGGAGUUUAUCAUG [U7G C54U U55A G65A A107U]
GGAUCUUAUCGGUCUAACAAAAAAGACAAAUCUGCCACAAAGCUUGAGAGCAUCUUCGGAUGCAGAGGCGGCAGCCUUCGGUGGCGCGAUUGCGCCAACGUUCUCAACUAUGACACGCAAAACGCGUGCUCCGUUGAAUGGAGUUUAGCAUG [C8A A12G A91U U148G]
GGAUCUGCUCGAUCUAACAAAAAAGACAAAUCUGCCACAAAGCUUGAGAGCAUCUUCGGAUGCAGAGGCGGCAGCCUUCGGUGGGGCGAUAGCGCCAACGUUCUCAACUAUGACACGCAAAACGCGUGCUCCGUUGAAUGGAGUUUAUCAUG [U7G C85G]
GGAUCUGCUCGAUCUAACAAAAAAGACAAAUCUGCCACAAAGCUUGAGAGCAUUUUCGGAUGCAGAGGCGGCAGCCUUCGGUGGCGCGAUAGCGCCAACGUUCUCAACUAUGUCACGCAAAACGCGUGGUCCGUUGAAUGGAGUUUAUCAUG [U7G C54U A113U C129G]
GGAUCUGCUCGAUCUAACAAAAAAGACAAAUCUGCCACAAAGCUUGAGAGCAUCUUCGGAUGCAGAGGCGGAAGCCUUCGGUGGCGGGAUAGCGCCGACGUUCUCAACUAUGACACGCAGAACGCGUGCUCCGUUGAAUGGAGUUUAUCAUG [U7G C72A C87G A97G A120G]
GGAUCUGCUCGAUCUAACAAAAAAGACAAAUCUACCACAAAGCUUGAGAGCAUCGUCGGAUGCAGAGCCGGCAGCCUUCGGUGGCGCGAUAGCGCCAACGUUCUCAACUAUGACACGCAAAACGCGUGCUCCGUUGAAUGGAGUUUAUCAUG [U7G G34A U55G G68C]
GGAUCUGCUCGAUCUAACAAAAAAGACAAAUCUGCCACAAAGCUUGAGAGCAACUUCGGAUGCAGAGGCGGCAGCCUUCGGUGGCGCGAUAGCGCCUACGUUCUCCACUAUGACACGCAAAUCGCGUGCUCCGUUGAAUGGAGAUUAUCAUG [U7G U53A A97U A106C A122U U144A]
GGAUCUGCUCCAUCUAACAAAAAAAACAAAUCUGCCACAAAGCUUGAGAGCAUCUUCGGAUGCAGAGGCGGCAGCCUUAGGUGGCGCGAUAGAGCCAACGUUCUCAACUAUGACACGCAAAACGCGUGCUCCGUUGAAUGGAGUUCAUCAUG [U7G G11C G25A C79A C93A U146C]
GGAUCUGCUCGAUCUAACAAAAAAGACAAAUCUGCCACAAAGCUUGAGAGCAUCUUCGGAUGCAGAGGCGGCAGCCUUCGGUGGCGCGAUAGCGUCAACGUUCUCAACUAUGACACGCAAAACGUGUGCUCCGUUGAAUCGAGUUUAUAAUG [U7G C95U C125U G140C C149A]
GGAUCUGCUCGAUCUAACAAAAAAGACAAAUCUGCCACAAAGCUUGAGAGCAUCAACGGAUGCAGCGUCGGCAGCCUUCGGUGGCGCGAUAGCACCAACGUUCUUAACUAUGUCACGCAAAACGCGUGCUCCGUGGAAUGGAGUUUAUCAUG [U7G U55A U56A A66C G68U G94A C105U A113U U135G]
GGAUCUGCUCGAUCGAACAAAAAAGACAAAUCUGCCACAAAGCUUGAGAGCAUCUGCGGAUGCAGAGGCGGCAGCCUUCGGUGGCGCGAUAGAGCCAACGUUCUCAACUAUGACCCGCAAAACGCGUGCGCCGUUGAAUGGAGUUUAUCAUG [U7G U15G U56G C93A A115C U130G]
GGAUCUGCUCGAUCUAACAAAAAAGACAAAUUUGCCACAAAGCUUGAGAGCAUCUUCGGAUGCAGAGGCGGCACCCUUCGGUGGCGCAAUAGCCCCAACGUUCUCAACUAUGACACGCAAAACGCGUACUCCGUUGAAUUGAGUUUAUCAUG [U7G C32U G74C G88A G94C G128A G140U]
GGAUCUGCUCGAUCUAACAAAAAAGAUAAAUCUGCCACAAAGCUUGACAGCAUCUUCGCAUGCAGAGGCGGCAGCUUUAGGUUGCGCGAUAGAGCCAACGUUCUCAACUAUGACACGCAAAACGCGUGCUCCGUUGAAUGGAGUUUAUCAUG [U7G C27U G48C G59C C76U C79A G83U C93A]
GGAUCUGCGCGAUCUAACAAAGAUGACAAAUCUGCCACAAAGCUUGAGAACAUCUUCGGAUGCAGAGGCGGCAGCCUUCGGUGGCGCGAUAGCGACAACGUUCUCAACUAUGACACCCAAAACGCGUGCUCCGUUGAAUGGAGUUUAUCAUG [U7G U9G A22G A24U G50A C95A G117C]
GGAUCUUAUCGGUCUAACAAAAAAGACAAAUCUGCCACAACGCUUGGGAGCAACUUCGGAUGCAGAGGCGGCAGCCUUCGGUGGCGCGAUAGCGCCAACGUUCUCAACUAUGACACGCAAAACGCGUGCUCCGUUGAAUGGAUUUUAUCACG [C8A A12G A41C A47G U53A G143U U151C]
GGAUCUGCUCGAUCAAACAAAAAAGACAAAUCUGCCACAAAGCUUGAGAGCAUCUUCGGAUGCAGACGCGGCAGCCUUCGGUAGCGCGAUAGCGCCAACGUUCUCAACUAUGACACGCAAAACGCGUGCUCCGUUGAAUGGAGUUUAUCAUG [U7G U15A G67C G83A]
GGAUCUGCUCGAUCUAACAAAAAAGACAAAUCUGCCACAAAGCUUGAGAACAUCUUCGGAUGCAGCGGCGGCAGCCUUCGGUAGAGCGAUAGCGCCAACGUUCUCAACUAUGACACGCAAAACGCGUGCUCCGUUGAAUGGAGUUUAUCAUG [U7G G50A A66C G83A C85A]
GGAUCUUAUCGCUCUAACAAAAAAGACAAAUCUGCCACAAAACUUGAGACCAUCUUCGGAUGCAGAGGCGGCAGCCUUCGGUAGCGCGACAGCGCUAACGUUCUCAACUAUGACACGCAAAACGCGUGCUCCGUUGAAUGUAGUUUCUCAUG [C8A A12C G42A G50C G83A U90C C96U G141U A147C]
GGAUCUGCUCGAUCUAACAAAAAAGACAAAUCUGCCACAAAGCUUGAGAGCAUCUUCUGAUGCAGAGGCGGCAGCCUUCGGUGGCGCGAUAGCUCCAACGUUCUCAACUAUGACACGCAAUACGCGUGCUCCGUUGAAUGGAGUUUAUGAUG [U7G G58U G94U A121U C149G]
